This passage reports AUC and IC50 results from the supplement of paper PMC4967469.

Assay in all cases: Viability of human cancer cell lines after 72 h of drug (GDSC screen)
Compound in assay [1]: COCC(=O)NC/C=C/c1ccc2ncnc(Nc3ccc(Oc4ccc(C)nc4)c(C)c3)c2c1 [CP724714]
The note with it: top dose 10.24 µM; top dose inferred. The procedure: (§1)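 Human cancer cell lines in 384-well plates, medium with 10% serum, drug for 72 h over a 256-fold dose range (nine 2-fold or five 4-fold steps up to the top dose). Adherent lines were fixed and stained with the nucleic acid dye Syto60, suspension lines read with resazurin; signal relative to control wells, capped at 0 and 100%. One two-parameter sigmoid per drug and line, fitted in a mixed model over all curves with the slope shared within a line.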

Compound in assay [2]: Cc1cnc(CNC(=O)c2c(=O)c3ccc(N4CCCN(C)CC4)nc3n3c2sc2ccccc23)cn1 [CX-5461]
The settings on record: top dose 10.24 µM; top dose inferred. How it is done: as §1

Compound in assay [3]: CC(C)C[C@H](NC(=O)[C@H](Cc1ccccc1)NC(=O)c1cnccn1)B(O)O [Bortezomib]
The note with it: top dose 0.02 µM. The procedure: as §1

Compound in assay [4]: Cc1cccc(Nc2nc(-c3ccncc3)cs2)c1 [STF-62247]
The note with it: top dose 10.24 µM; top dose inferred. The procedure:
as §1

Compound in assay [5]: COC1=CC(c2cc3ccccc3[nH]2)=N/C1=C\c1[nH]c(C)cc1C [Obatoclax mesylate]
The settings on record: top dose 16 µM. How it is done: as §1

Compound in assay [6]: CC(=O)O[C@H]1C(=O)[C@@]2(C)[C@H]([C@H](OC(=O)c3ccccc3)[C@]3(O)C[C@H](OC(=O)[C@H](O)[C@@H](NC(=O)c4ccccc4)c4ccccc4)C(C)=C1C3(C)C)[C@]1(OC(C)=O)CO[C@@H]1C[C@@H]2O [Paclitaxel]
The settings on record: top dose 0.1024 µM. The procedure:
as §1

pIC50: −log10 of the molar value. The IC50 comes from the fitted curve, where viability falls to half of the control; a fit beyond the top or the lowest dose is shown as a bound at that dose. AUC is the area under the same curve over the 256-fold range up to the top dose, as a fraction; values near 1 show little effect. For some of these results: A top dose marked as inferred comes from the curve model; the source does not state it.

In the case of BC-1 (B-cell lymphoma, suspension), the AUC in assay [1] turned out to be 0.938; in assay [2] it was 0.845; in assay [3] it was 0.61; in assay [4] it was 0.956; in assay [5] it was 0.128. Further, the negative logarithm of the IC50 (pIC50) was less than 4.99 in assay [1]; 5.23 in assay [2]; 8.62 in assay [3]; less than 4.99 in assay [4]; 7.06 in assay [5].

As to CAL-148 (breast, suspension), the AUC stood at 0.986 in assay [1]; 0.624 in assay [2]; 0.938 in assay [3]; 0.989 in assay [4]; 0.519 in assay [5]. The pIC50 in assay [1] is less than 4.99; in assay [2] it was 5.86; in assay [3], less than 7.70; in assay [4], less than 4.99; in assay [5] it was 5.95.

For “CCRF-CEM (lymphoblastic leukaemia, suspension)”, the AUC in assay [1] was determined as 0.979; in assay [2], 0.256; in assay [3] it was 0.426; in assay [4] it was 0.971; in assay [5], 0.073. Besides, the pIC50 is less than 4.99 in assay [1]; 6.83 in assay [2]; 9.09 in assay [3]; less than 4.99 in assay [4]; more than 7.20 in assay [5].

For the cell line D-247MG (glioma, adherent), the AUC in assay [1] came out at 0.831; in assay [2], 0.974; in assay [3] it was 0.365; in assay [6], 0.806; in assay [4], 0.763. Also, the pIC50 in assay [1] was 5.00; in assay [2] it was less than 4.99; in assay [3], 9.34; in assay [6], 7.12; in assay [4] it was 5.30.

With D-336MG (glioma, adherent), the AUC in assay [1] worked out at 0.97; in assay [2] it was 0.853; in assay [3], 0.389; in assay [6], 0.85; in assay [4], 0.942. Further, the negative-log IC50 (pIC50) was less than 4.99 in assay [1]; less than 4.99 in assay [2]; 9.25 in assay [3]; less than 6.99 in assay [6]; less than 4.99 in assay [4].

For D-392MG (glioma, adherent), the AUC in assay [1] amounted to 0.978; in assay [2], 0.965; in assay [3] it was 0.504; in assay [4] it was 0.965; in assay [5], 0.547. The pIC50 in assay [1] is less than 4.99; in assay [2], less than 4.99; in assay [3] it was 8.89; in assay [4] it was less than 4.99; in assay [5] it was 5.85.

Turning to D-542MG (glioma, adherent), the AUC in assay [1] was 0.974; in assay [2], 0.984; in assay [3], 0.323; in assay [4], 0.984; in assay [5], 0.296. Further, the negative-log IC50 (pIC50) in assay [1] was less than 4.99; in assay [2] it was less than 4.99; in assay [3] it was 9.45; in assay [4], less than 4.99; in assay [5], 6.64.

Regarding “DMS-114 (small cell lung carcinoma, adherent)”, the AUC came out at 0.968 in assay [1]; 0.985 in assay [2]; 0.805 in assay [3]; 0.977 in assay [4]; 0.563 in assay [5]. Moreover, the pIC50 in assay [1] is less than 4.99; in assay [2] it was less than 4.99; in assay [3], 7.92; in assay [4], less than 4.99; in assay [5], 5.82.

Take DU-4475 (breast, suspension): the AUC in assay [1] was found to be 0.963; in assay [2], 0.469; in assay [3], 0.513; in assay [4], 0.97; in assay [5] it was 0.204. Moreover, the negative logarithm of the IC50 (pIC50) in assay [1] is less than 4.99; in assay [2], 6.27; in assay [3], 8.87; in assay [4] it was less than 4.99; in assay [5] it was 6.77.

For ECC12 (stomach, suspension), in assay [3], the AUC was 0.525 and the negative logarithm of the IC50 (pIC50) is 8.83.

As for ES-2 (ovary, adherent), the AUC in assay [1] turned out to be 0.976; in assay [2], 0.642; in assay [3] it was 0.564; in assay [4], 0.991; in assay [5] it was 0.293. The pIC50 in assay [1] is less than 4.99; in assay [2], 5.82; in assay [3], 8.74; in assay [4], less than 4.99; in assay [5], 6.55.

Take EVSA-T (breast, adherent): the AUC in assay [1] was found to be 0.989; in assay [2], 0.983; in assay [3] it was 0.651; in assay [4], 0.975; in assay [5], 0.455. Also, the negative logarithm of the IC50 (pIC50) was less than 4.99 in assay [1]; less than 4.99 in assay [2]; 8.52 in assay [3]; less than 4.99 in assay [4]; 6.12 in assay [5].
